Data published in the supplement of paper PMC12889115.
This is one part of the list. No stated cut-off is given here; in the data, active = 25% or less and inactive = the rest. Many values rest on one well or one pass, so single values are uncertain.

How the values were obtained:
[1] = test system: Salmonella enterica serovar Typhimurium SL1344; assay: bacterial growth OD600 after 18 h in MHB with 0.5 µg/mL polymyxin B; higher = more bacterial growth (less inhibition); details: 25 µM; polymyxin B 0.5 µg/mL; system: broth
Experimental: (§1)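 Secondary screen of the 553 primary hits at 25 µM. (i) S. Typhimurium SL1344 grown in Mueller-Hinton broth with 0.5 µg/mL polymyxin B, OD600 read after 18 h. (ii) SAFIRE assay: RAW 264.7 macrophages infected with S. Typhimurium sifB::gfp (MOI 30); compound added 2 h post-infection; cells fixed at 18 h; GFP-positive pixel fraction per macrophage imaged by confocal microscopy and expressed as % of DMSO control.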

[2] = test system: Salmonella enterica serovar Typhimurium SL1344; assay: intramacrophage bacterial GFP load (SAFIRE), percent of DMSO control (% of DMSO); higher = more intracellular bacteria (less inhibition); details: 25 µM; system: infected RAW 264.7 macrophages
Experimental: as §1
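Wherever bacterial growth OD600 after 18 h in MHB with 0.5 µg/mL polymyxin B is given: polymyxin B level opens the outer membrane while sparing the inner membrane, with novobiocin wells as reference growth inhibitor.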
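Wherever intramacrophage bacterial GFP load (SAFIRE), percent of DMSO control is given: compounds tested were the hits of an earlier 50 µM broth growth screen of a drug-like diversity library run with polymyxin B.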

Compound	bacterial growth OD600 [1]	intramacrophage bacterial GFP load [2]
CC(C(=O)N(Cc1ccncc1)Cc1cccc(OCCc2ccc(F)cc2)c1)c1n[nH]c(=O)c2ccccc12 (stereo not given)	0	
C=CC[C@@H]1CC=C[C@@H](C)N1C(=O)CC1(c2ccccc2)CC(=O)N(CCCOc2cccnc2)C1=O (stereo not given in full)	0.004	
Cc1nc(N2CCCCCCC2)ncc1C(C)NCc1ccccc1 (stereo not given)	0.004	
Cc1ccc(CN(C)Cc2cnc(S(=O)(=O)C(C)C)n2CCc2ccccc2)cc1	0.003	
O=C(c1cccc(Cl)c1)C1CCCN(C(=O)Nc2ccc3c(c2)OCO3)C1 (stereo not given)	0.316	
Cc1nc(N2CCCCCCC2)ncc1C(C)NCc1ccsc1 (stereo not given)	0.002	
Cc1ccc(OCc2cc(C(=O)N(C)CCC(C)C)no2)cc1C	0	
CSCCC(=O)N1CCc2[nH]nc(-c3ccc(Cl)cc3)c2C1	0.007	
COC(c1ccc2c(c1)CN(C(=O)C1Cc3ccccc3O1)CCO2)C1CCCCC1 (stereo not given)	0.006	
O=C(C#Cc1ccccc1)N1CCC(C2(c3cccnc3)NC(=O)N(CCc3cccs3)C2=O)CC1 (stereo not given)	0.387	inactive: 147
CC(C)CN(C)Cc1cnc(S(=O)(=O)CC(C)C)n1Cc1ccccc1	0.113	
COCC(=O)Nc1cnn(-c2cccc(C(=O)N3CCc4c([nH]c5ccccc45)C3C(C)C)c2)c1 (stereo not given)	0	inactive: 129
O=C(c1cccc(N2CCCC2=O)c1)N(Cc1ccncc1)Cc1cccc(OCCc2ccc(F)cc2)c1	-0.008	
Cc1ccccc1CNC(=O)c1coc(COc2cccc(F)c2)n1	0.174	
O=C(C1CC12CCCC2)N1CCc2[nH]nc(-c3ccc4c(c3)OCO4)c2C1 (stereo not given)	0.005	
O=C1N(CCCc2ccccc2)CCCC12CCN(c1ccccn1)C2 (stereo not given)	0.23	
COCC1CCN(c2ccc(-c3nc(COc4ccccc4)no3)cn2)C1 (stereo not given)	0.592	inactive: 161
CC(C)N1CCC(C(=O)N2CCCC(CCc3ccc(F)c(F)c3)C2)CC1 (stereo not given)	0.001	inactive: 27.3
Cn1c(CNc2nncc(-c3cccc(Cl)c3)n2)nc2ccccc21	0.003	
CC(C)Oc1cccc(C(=O)C2CCCN(C(=O)/C=C/c3cccs3)C2)c1 (stereo not given)	-0.01	
CSc1ccc(C(=O)N2CCC(C(Cc3ccc(F)cc3F)N(C)C(=O)C3CC3)CC2)cc1 (stereo not given)	-0.015	
CC#CCN1C(=O)NC(CCCc2ccccc2)(C2CCN(C(=O)/C=C/c3ccccn3)CC2)C1=O (stereo not given)	0	active: 23.7
CN1C(=O)CC(CC(=O)N2CCCCC2c2nccs2)(c2ccc(-c3ccccc3)cc2)C1=O (stereo not given)	-0.004	
COc1ccc(OC)c(S(=O)(=O)N(Cc2ccncc2)Cc2cccc(OCCCc3ccncc3)c2)c1	0	inactive: 63.3
Cc1ccc2c(c1)CN(Cc1cccnc1)CC(c1ccsc1)O2 (stereo not given)	0.013	
CCOC(=O)C1(Cc2ccccc2C)CCCN(C(=O)c2cc(C3CC3)n[nH]2)C1 (stereo not given)	0.003	inactive: 63.6
COc1cccc(CC2(CCC(=O)NC(c3ccccc3)c3ccc(Cl)cc3)CCC(=O)N2)c1 (stereo not given)	-0.001	inactive: 138
O=S(=O)(c1ccccc1C(F)(F)F)N1CCC(CO)(Cc2ccccc2Cl)CC1	-0.007	inactive: 66.6
COC1CCN(C(=O)C2(N(C)CCc3ccccc3)Cc3ccccc3C2)CC1	0.006	
COc1ccccc1C1(CC(=O)N2CCCC2c2ccc(F)cc2)CC(=O)N(C2CCCC2)C1=O (stereo not given)	-0.019	inactive: 79.3
